Results on 97 variants are retold here after a collection of fitness landscapes (doi:10.1016/j.celrep.2020.107928).

The chains are these.
B1: Caulobacter ParB omega fusion; a variant is named by its letters at X, in order, B8GW30 (parent)
chain: MESVVVGEPGMSEGRRGLGRGLSALLGEVDAAPAQAPGEQLGGSREAPIEILQRNPDQPRRTFREEDLEDLSNSIREKGVLQPILVRPSPDTAGEYQIVAGERAWRAAQRAGLKTVPIMVRELDDLAVLEIGIIENVQRADLNVLEEALSYKVLMEKFERTQENIAQTIGKSXSHVANXMRLLXLPDEVQSYLVSGELTAXHARAIAAAADPVALAKQIIEGGLSVRETEALARKAPNLSAGKSKGGRPPRVKDTDTQALESDLSSVLGLDVSIDHRGSTGTLTITYATLEQLDDLCNRLTRGI

Whole data set: some 81,000 sequences, median “one-hybrid fitness for binding NBS DNA” near -0.1, cut for the highest 2% near 0.36. The list shows a part of the results.

In the assay the parent is B1. As to the kind of experiment: one-hybrid fitness for binding NBS DNA (the Noc-binding site; scaled: cognate 1, non-cognate 0); higher = stronger binding. The settings on record: with NBS DNA site. In short, it runs like this:
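Bacterial one-hybrid selection in E. coli USO rpoZ- hisB- pyrF- with a HIS3 reporter carrying the site 19 bp from the promoter, screening Caulobacter ParB libraries with four specificity codons randomised (NNS). Cells grew 48 hours at 37°C on M9-minus-histidine plus 0.1 mM IPTG and 5 mM 3-AT. Plasmids before and after selection were Illumina-sequenced, three replicate libraries pooled, and variants under 10 reads dropped. Fitness is the log change in variant-to-wild-type read ratio, rescaled to cognate 1, non-cognate 0.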
As to WYVV, the “one-hybrid fitness for binding NBS DNA” value was not above 0.2.

As for FVRM, the “one-hybrid fitness for binding NBS DNA” value was not above 0.2.

Turning to QLQY, the “one-hybrid fitness for binding NBS DNA” value is not above 0.2.

As to MRER, the “one-hybrid fitness for binding NBS DNA” value was not above 0.2.

In the case of KRSV, the “one-hybrid fitness for binding NBS DNA” value was not above 0.2.

Regarding RHEI, the “one-hybrid fitness for binding NBS DNA” value was not above 0.2.

CTRF: the “one-hybrid fitness for binding NBS DNA” value is not above 0.2.

With VTQT, the “one-hybrid fitness for binding NBS DNA” value is not above 0.2.

Consider TSVS, for which the “one-hybrid fitness for binding NBS DNA” value was not above 0.2.

As to PFSR, the “one-hybrid fitness for binding NBS DNA” value is not above 0.2.

Regarding AHGN, the “one-hybrid fitness for binding NBS DNA” value is not above 0.2.

Take HCTF: the “one-hybrid fitness for binding NBS DNA” value was not above 0.2.

Turning to QSCC, the “one-hybrid fitness for binding NBS DNA” value is not above 0.2.

For the variant PECT, the “one-hybrid fitness for binding NBS DNA” value was not above 0.2.

On to PCCY, for which the “one-hybrid fitness for binding NBS DNA” value is not above 0.2.

With RKAL, the “one-hybrid fitness for binding NBS DNA” value was not above 0.2.

In the case of VYKP, the “one-hybrid fitness for binding NBS DNA” value is not above 0.2.

In the case of HFLT, the “one-hybrid fitness for binding NBS DNA” value was not above 0.2.

For the variant HHEG, the “one-hybrid fitness for binding NBS DNA” value was not above 0.2.

Regarding YLSQ, the “one-hybrid fitness for binding NBS DNA” value was not above 0.2.

For the variant VSMS, the “one-hybrid fitness for binding NBS DNA” value was not above 0.2.

Regarding HAGM, the “one-hybrid fitness for binding NBS DNA” value is not above 0.2.

For the variant ASML, the “one-hybrid fitness for binding NBS DNA” value is not above 0.2.

With QHPC, the “one-hybrid fitness for binding NBS DNA” value was not above 0.2.

Consider VLWL, for which the “one-hybrid fitness for binding NBS DNA” value was not above 0.2.

On to MKPA, for which the “one-hybrid fitness for binding NBS DNA” value was not above 0.2.

Take WQSC: the “one-hybrid fitness for binding NBS DNA” value is not above 0.2.

Take AQHS: the “one-hybrid fitness for binding NBS DNA” value was not above 0.2.

In the case of AFSW, the “one-hybrid fitness for binding NBS DNA” value is not above 0.2.

With MHHD, the “one-hybrid fitness for binding NBS DNA” value is not above 0.2.

Take HPRA: the “one-hybrid fitness for binding NBS DNA” value is not above 0.2.

Take YQST: the “one-hybrid fitness for binding NBS DNA” value was not above 0.2.

For VYSK, the “one-hybrid fitness for binding NBS DNA” value was not above 0.2.

In the case of QWAV, the “one-hybrid fitness for binding NBS DNA” value is not above 0.2.

VIWC: the “one-hybrid fitness for binding NBS DNA” value was not above 0.2.

Take GPLR: the “one-hybrid fitness for binding NBS DNA” value was not above 0.2.

Turning to LRPF, the “one-hybrid fitness for binding NBS DNA” value is not above 0.2.

AMNS: the “one-hybrid fitness for binding NBS DNA” value was not above 0.2.

Take GKSN: the “one-hybrid fitness for binding NBS DNA” value is not above 0.2.

On to VRNS, for which the “one-hybrid fitness for binding NBS DNA” value is not above 0.2.

Take WSYG: the “one-hybrid fitness for binding NBS DNA” value was not above 0.2.

For ESMD, the “one-hybrid fitness for binding NBS DNA” value is not above 0.2.

As for HPFS, the “one-hybrid fitness for binding NBS DNA” value was not above 0.2.

Regarding PISC, the “one-hybrid fitness for binding NBS DNA” value is not above 0.2.

As to CHSV, the “one-hybrid fitness for binding NBS DNA” value is not above 0.2.

Regarding RGDL, the “one-hybrid fitness for binding NBS DNA” value is not above 0.2.

Regarding QYTL, the “one-hybrid fitness for binding NBS DNA” value was not above 0.2.

For QVSW, the “one-hybrid fitness for binding NBS DNA” value is not above 0.2.

On to STVN, for which the “one-hybrid fitness for binding NBS DNA” value was not above 0.2.

With EYIC, the “one-hybrid fitness for binding NBS DNA” value is not above 0.2.

Consider CRML, for which the “one-hybrid fitness for binding NBS DNA” value was not above 0.2.

On to WSWT, for which the “one-hybrid fitness for binding NBS DNA” value was not above 0.2.

Turning to ANCA, the “one-hybrid fitness for binding NBS DNA” value is not above 0.2.

For the variant GRIG, the “one-hybrid fitness for binding NBS DNA” value is not above 0.2.

For ATTL, the “one-hybrid fitness for binding NBS DNA” value was not above 0.2.

Turning to KYCT, the “one-hybrid fitness for binding NBS DNA” value was not above 0.2.

In the case of FMES, the “one-hybrid fitness for binding NBS DNA” value is not above 0.2.

On to QWGH, for which the “one-hybrid fitness for binding NBS DNA” value is not above 0.2.

In the case of RPII, the “one-hybrid fitness for binding NBS DNA” value is not above 0.2.

Regarding EGHP, the “one-hybrid fitness for binding NBS DNA” value was not above 0.2.

For TSLN, the “one-hybrid fitness for binding NBS DNA” value is not above 0.2.

With EIHG, the “one-hybrid fitness for binding NBS DNA” value is not above 0.2.

As for TIWP, the “one-hybrid fitness for binding NBS DNA” value is not above 0.2.

For the variant KGCG, the “one-hybrid fitness for binding NBS DNA” value was not above 0.2.

In the case of ISTL, the “one-hybrid fitness for binding NBS DNA” value is not above 0.2.

Take PIRF: the “one-hybrid fitness for binding NBS DNA” value was not above 0.2.

Consider DNLN, for which the “one-hybrid fitness for binding NBS DNA” value is not above 0.2.

Take YWYG: the “one-hybrid fitness for binding NBS DNA” value was not above 0.2.

With KLDG, the “one-hybrid fitness for binding NBS DNA” value is not above 0.2.

For HMGY, the “one-hybrid fitness for binding NBS DNA” value is not above 0.2.

Consider PSNA, for which the “one-hybrid fitness for binding NBS DNA” value was not above 0.2.

Consider IVTC, for which the “one-hybrid fitness for binding NBS DNA” value is not above 0.2.

Turning to VAGE, the “one-hybrid fitness for binding NBS DNA” value is not above 0.2.

For the variant ESRT, the “one-hybrid fitness for binding NBS DNA” value was not above 0.2.

As to FWKR, the “one-hybrid fitness for binding NBS DNA” value was determined as 0.328.

Regarding NSRC, the “one-hybrid fitness for binding NBS DNA” value was not above 0.2.

Regarding MLMG, the “one-hybrid fitness for binding NBS DNA” value is not above 0.2.

As to VKLT, the “one-hybrid fitness for binding NBS DNA” value is not above 0.2.

KLPW: the “one-hybrid fitness for binding NBS DNA” value is not above 0.2.

VHPV: the “one-hybrid fitness for binding NBS DNA” value was not above 0.2.

Consider AVTY, for which the “one-hybrid fitness for binding NBS DNA” value was not above 0.2.

As for FNVG, the “one-hybrid fitness for binding NBS DNA” value was not above 0.2.

Consider LVQY, for which the “one-hybrid fitness for binding NBS DNA” value was not above 0.2.

Take KHWR: the “one-hybrid fitness for binding NBS DNA” value is not above 0.2.

On to MLWS, for which the “one-hybrid fitness for binding NBS DNA” value is not above 0.2.

On to LLHV, for which the “one-hybrid fitness for binding NBS DNA” value is not above 0.2.

For the variant PKTM, the “one-hybrid fitness for binding NBS DNA” value was not above 0.2.

As to KRMY, the “one-hybrid fitness for binding NBS DNA” value was not above 0.2.

On to ATDM, for which the “one-hybrid fitness for binding NBS DNA” value was not above 0.2.

Take YKTP: the “one-hybrid fitness for binding NBS DNA” value is not above 0.2.

On to RCME, for which the “one-hybrid fitness for binding NBS DNA” value was not above 0.2.

LVGY: the “one-hybrid fitness for binding NBS DNA” value was not above 0.2.

For LPSW, the “one-hybrid fitness for binding NBS DNA” value is not above 0.2.

As to SPWS, the “one-hybrid fitness for binding NBS DNA” value was not above 0.2.

Regarding NQRY, the “one-hybrid fitness for binding NBS DNA” value is not above 0.2.

Turning to TKMP, the “one-hybrid fitness for binding NBS DNA” value is not above 0.2.

On to CISG, for which the “one-hybrid fitness for binding NBS DNA” value was not above 0.2.
